These results are taken from ChEMBL document CHEMBL4888484, “Replenishing the malaria drug discovery pipeline: Screening and hit evaluation of the MMV Hit Generation Library 1 (HGL1) against asexual blood stage Plasmodium falciparum ,using a nano luciferase reporter read-out” (2022).

Among all 150,000 compounds or so, about 540 (0.36%) showed an effect of 50% or more. Some of the results follow.

The test system of this assay is Plasmodium falciparum. Nature of the assay: Primary screen in NF54 nanoGlo assay, in single point, at 2uM, 72h; a lower Z score goes with more inhibition. The class given is functional, Erythrocyte. As to conditions: timepoint 72 hour.
Regarding `CCc1nnsc1C(=O)N1CC(C)OC(C)C1` (stereo not drawn), the % Inhibition (usually the drop in the measured response relative to a control, in per cent) worked out at 8% and the Z score is -1.22.
The like results for `O=C(C[C@@]1(C(=O)O)CC(c2ccccc2Cl)=NO1)Nc1ccccc1` were, in that order, -30% and 3.54.
With `C[C@@H](CN1CCOCC1)N1CCN(Cc2nccn2C(F)F)CC1`, the “% Inhibition” value came out at 2% and the Z score is listed as -0.37.
Regarding `CCCOc1ccc(OC2CCCCC2NC(=O)N2CC[C@@]3(O)C[C@H]3C2)cc1` (stereo partly drawn), the “% Inhibition” value is -10% and the Z score is 1.94.
In the case of `CCn1cnnc1CN(C)c1ccnc(C(=O)NCc2cccnc2)c1`, the “% Inhibition” value was found to be 1% and the Z score was -0.22.
As for `COc1cc(OC)nc(Oc2cccc(Cl)c2C(=O)NS(=O)(=O)c2cccnc2)n1`, the “% Inhibition” value was -30% and the Z score amounted to 3.48.
For the compound `C[C@H]1CCCN1C(=O)c1cccc(-c2nc(N(C)C)n(Cc3ccccc3)n2)c1`, the “% Inhibition” value is reported as -8% and the Z score is 1.1.
The corresponding values for `COc1cc([C@H]2CC(=O)Nc3c2cnn3-c2nc3ccccc3s2)ccc1OCC(N)=O` are -3% and 0.41.
Consider `Cc1ccc2nc(N(C)Cc3snnc3C)cc(C)c2c1`, for which the “% Inhibition” value is 17% and the Z score is on record as -2.22.
Consider `COc1nc2c(cc1-c1nc(CC3CCN(C)CC3)nn1CCO)CCC2`, for which the “% Inhibition” value was 13% and the Z score is listed as -1.65.
The corresponding values for `O=C(c1csc(C(F)(F)F)n1)N1CCc2nc(-c3ccccc3Cl)sc2C1` are -11% and 1.46.
The corresponding values for `CCc1nccn1CCC(=O)N1CCc2[nH]c(-c3cccnc3)nc2C1` are -7% and 1.38.
With `Cc1cc(NCc2ccco2)c2nncn2n1`, the “% Inhibition” value is -20% and the Z score was 3.95.
Take `Cc1cc(CNCCc2nccn2C)ccc1Cl`: the “% Inhibition” value is 9% and the Z score was -1.46.
The corresponding values for `COc1ccc(N2CCN(C(=O)C(=O)c3cccn3C)CC2)cc1` are -20% and 1.82.
For the compound `O=C(CCc1ccsc1)Nc1nncs1`, the “% Inhibition” value is recorded as -3% and the Z score came out at 0.33.
Take `CCCCn1nccc1NC(=O)N[C@H](c1cc(C)ccn1)C1CC1`: the “% Inhibition” value was -16% and the Z score worked out at 2.43.
The corresponding values for `CN(C)[C@H]1[C@H](Nc2ncc(F)c(N3CCOCC3)n2)[C@@H]2CCO[C@@H]21` are 0% and 0.02.
Take `Cc1cc(CNC(C)(C)c2c(C)noc2C)c2c(n1)CCCC2`: the “% Inhibition” value was found to be 4% and the Z score is given as -0.69.
The corresponding values for `O=C(Nc1cccc(C(F)(F)F)c1)C1(F)C(F)(F)C(F)(F)C(F)(F)C(F)(F)C1(F)F` are 2% and -0.22.
For `CNc1ncccc1C(=O)N1CCN(C)C(=O)C1`, the “% Inhibition” value was -4% and the Z score came to 0.53.
With `OCC1(Cn2cnc(-c3ccccc3)c2-c2ccc3c(c2)OCCO3)CCOCC1`, the “% Inhibition” value is given as -12% and the Z score stood at 1.86.
The corresponding values for `CC1CCCCC1OCC(=O)Nc1cc(C(N)=O)c(F)cc1F` (stereo not drawn) are -18% and 1.96.
The corresponding values for `CC(=O)Nc1cc2[nH]nnc2c2nn[nH]c12` are 8% and -1.58.
The like results for `Cc1ncccc1C(=O)N[C@H]1CC[C@H](Oc2ncc(F)cn2)CC1` were, in that order, -10% and 1.13.
Take `COc1ccc(S(=O)(=O)Nc2cn(C)cc(Br)c2=O)cc1OC`: the “% Inhibition” value amounted to 11% and the Z score was -1.25.
The corresponding values for `OCc1nnn(-c2nc(-c3ccccc3)cc(C(F)(F)F)n2)c1CO` are 0% and -0.04.
The corresponding values for `Cc1csc(CNC(=O)N[C@H](c2cccs2)C(C)(C)CO)n1` are -5% and 0.61.
The like results for `CC(C)(C)[C@@H]1CCCN1Cc1ccncc1` were, in that order, -11% and 1.12.
As for `Cc1cccc(CS(=O)(=O)N2CCC[C@H](Oc3ncccn3)C2)c1`, the “% Inhibition” value is 6% and the Z score is listed as -0.87.
With `CNS(=O)(=O)[C@H]1CCN(Cc2cnc(C(C)(C)C)s2)C1`, the “% Inhibition” value stood at 0% and the Z score was -0.02.
The like results for `c1ccc(CNCc2ccc(COC3CCOCC3)cc2)nc1` were, in that order, -17% and 2.13.
On to `CO[C@H]1C[C@@H](O)C12CCN(C(=O)CCc1n[nH]c(C)c1C)CC2`, for which the “% Inhibition” value is listed as -7% and the Z score stood at 1.49.
The like results for `CNc1ncc(C(=O)N2C[C@@H]3CC[C@H]2CN(C2Cc4ccccc4C2)C3)cn1` were, in that order, -3% and 0.64.
For `COc1ccccc1N1CCN(C(=O)C[C@@H]2NC(=O)NC2=O)CC1`, the “% Inhibition” value stood at 0% and the Z score was 0.02.
With `Cc1ccc(C(=O)NCCc2noc(C(F)(F)F)n2)s1`, the “% Inhibition” value is on record as -12% and the Z score is on record as 1.35.
In the case of `NC(=O)N1CCC[C@H]1C(=O)N1CCc2[nH]nc(C3CCC3)c2C1`, the “% Inhibition” value was -4% and the Z score is recorded as 0.5.
For the compound `CC(C(=O)N(C)C(C)C)N1CCS(=O)(=O)C(C)C1` (stereo not drawn), the “% Inhibition” value was -5% and the Z score stood at 0.83.
As to `CCc1nsc(N2C[C@@H](O)[C@@H](O)C2)n1`, the “% Inhibition” value is -15% and the Z score was 1.84.
On to `Cc1cn2c(n1)[C@@H](CNC(=O)c1cn(C(C)C)cn1)CCC2`, for which the “% Inhibition” value is 0% and the Z score was -0.04.
The like results for `Cc1ccc(C(=O)N2CCC(c3ncon3)CC2)n1C(F)F` were, in that order, -9% and 0.75.
The corresponding values for `Cn1c(CNc2ccc(-n3ccnn3)cc2)nc2ccccc21` are -17% and 2.54.
Take `O=C1C[C@@H](c2ccccc2)n2nc(NC(=O)c3ccc4c(c3)OCO4)nc2N1`: the “% Inhibition” value is reported as -3% and the Z score came to 0.32.
`Cc1nc[nH]c1-c1nccn1CCc1nc2c(s1)CCCC2`: the “% Inhibition” value stood at 6% and the Z score is on record as -1.17.
Consider `CCOC(=O)N1CCc2c(nc(-c3ccc(C)cc3)n(CC(=O)NCc3ccccc3)c2=O)C1`, for which the “% Inhibition” value came out at 26% and the Z score is reported as -2.9.
`O=C(NCC(=O)N1CCCC1)C(=O)Nc1ccc(O)cc1`: the “% Inhibition” value is given as -3% and the Z score came out at 0.48.
On to `C[C@H](NC(=O)c1cc(C2CC2)on1)c1ccc2c(c1)CC(=O)N2`, for which the “% Inhibition” value was -4% and the Z score came out at 0.63.
The corresponding values for `COCCNC(=O)Cn1c(N2CCc3ccccc3C2)nc(C)cc1=O` are 7% and -0.93.
`CCCc1nnsc1C(=O)NC1CCN(c2cc3c(nn2)CCCC3)CC1`: the “% Inhibition” value is -17% and the Z score is listed as 2.85.
The like results for `Cc1cc(COC(=O)c2nccnc2-c2nc3ccccc3s2)no1` were, in that order, -4% and 0.71.
The like results for `O=C(N[C@@H](Cn1cccn1)c1ccccc1)c1cc2ncc(CCO)cn2n1` were, in that order, -4% and 0.44.
For `Cc1nn(C)c(Cl)c1-c1nc(-c2cnn(C)c2)no1`, the “% Inhibition” value is reported as -6% and the Z score was found to be 0.89.
For `CCOCc1c(C(=O)Nc2cc(OCC)c(N3CCOCC3)cc2OCC)oc2ccccc12`, the “% Inhibition” value was -5% and the Z score amounted to 0.89.
Take `CC1C(C)N(C(=O)OC(C)(C)C)CCN1C(=O)NCc1ccc2c(c1)OCO2` (stereo not drawn): the “% Inhibition” value is listed as -16% and the Z score amounted to 2.92.
With `CCCN1CCN(C2CCN(Cc3ncc(C)o3)CC2)CC1`, the “% Inhibition” value is on record as -14% and the Z score came out at 2.72.
The like results for `CCn1cc(C(=O)N2CCC[C@H](N(CCCN3CCCC3)C(=O)C(C)C)C2)c(C)n1` were, in that order, 7% and -1.16.
On to `Cc1cc(C(F)(F)F)nc(C(=O)N[C@H](c2ccncc2)C2CC2)n1`, for which the “% Inhibition” value is recorded as -10% and the Z score is 1.42.
The like results for `CCS(=O)(=O)NCCCN(C)c1ccc(F)c(F)c1` were, in that order, -5% and 0.49.
The corresponding values for `Cc1nnsc1C(=O)Nc1ccc(OCC(C)C)nc1` are -20% and 2.77.
As for `C=CCn1c(C)c(CC(=O)NCc2ccccc2F)c(=O)n2nc(-c3ccc(C)cc3)nc12`, the “% Inhibition” value was 5% and the Z score was -0.57.
The corresponding values for `Cc1ccccc1[C@H]1CN(C(=O)CCCn2ccnc2C)C[C@@H]1C(=O)O` are -10% and 1.26.
The like results for `Cc1ccc(OCc2c(C(=O)N3CCCCCC3)c(=O)cc(C)n2CCN2CCOCC2)cc1` were, in that order, -4% and 0.4.
The like results for `Cc1noc(C)c1CC(=O)N[C@H]1CCc2nn(C)c(=O)n2CC1` were, in that order, -10% and 1.61.
Take `Cc1ccccc1CNC(=O)c1ccc(N2CCc3ccccc32)s1`: the “% Inhibition” value is -16% and the Z score came out at 2.14.
The corresponding values for `CCc1ccc(CN2CCC([C@H](O)c3cccs3)CC2)nc1` are -10% and 1.42.
The like results for `Cn1nnc(NC(=O)[C@@H]2C[C@]2(C)c2ccccc2)c1C(F)F` were, in that order, 1% and -0.26.
The corresponding values for `COc1ccc([C@H](C)N2CCC(n3cncn3)CC2)cc1Cl` are -2% and 0.25.
For `Cc1c(C#N)nn(-c2cccnc2)c1NC(=O)COC[C@H]1CCCO1`, the “% Inhibition” value is recorded as 1% and the Z score is reported as -0.15.
With `CC(C)(C#N)c1ccc(-c2ccc3[nH]c(CO)nc3c2)cc1`, the “% Inhibition” value is given as -3% and the Z score is recorded as 0.63.
For the compound `CN(CCC#N)C(=O)COc1ccc(Br)cc1Br`, the “% Inhibition” value was -10% and the Z score was 1.27.
The like results for `CCc1ncc(CN(C)C[C@H]2OCCN(C)[C@@H]2c2cnn(C)c2)o1` were, in that order, -8% and 0.99.
Consider `Cc1ccc(-c2ncccc2NC(=O)N2C[C@@H]3[C@@H](CF)[C@@H]3C2)s1`, for which the “% Inhibition” value is given as -5% and the Z score stood at 0.96.
The like results for `Cn1c(C(F)(F)F)nn(CC(=O)NCc2ccc(F)cc2)c1=O` were, in that order, -12% and 1.42.
On to `Cn1ccnc(NCC(=O)NCC2CC2)c1=O`, for which the “% Inhibition” value was -5% and the Z score is on record as 0.63.
Take `COC[C@H](NC(=O)Cn1cc(C2CC2)nn1)c1ccc(F)c(F)c1`: the “% Inhibition” value stood at 3% and the Z score is recorded as -0.34.
The like results for `Cc1cc(F)c(C(=O)O[C@@H](C)CCN2CCCC2=O)cc1F` were, in that order, -8% and 1.07.
The corresponding values for `CN(C)C(=O)CO[C@H]1CCOC[C@H]1NS(C)(=O)=O` are -15% and 1.68.
The like results for `O=C(NCc1ccc(F)cc1F)C1CCN(C(=O)c2nnn3c2CO[C@H](c2ccc(F)cc2)C3)CC1` were, in that order, -9% and 1.06.
For `C[C@H]1CN(CCO)CCN1C(=O)c1cccn1C1CCCC1`, the “% Inhibition” value is recorded as -13% and the Z score came to 1.68.
The like results for `CC1CCN(C(=O)C2CC2c2c(F)cccc2F)C(c2ccco2)C1` (stereo not drawn) were, in that order, 1% and -0.12.
The like results for `CN1CCN(C(=O)c2nc3cnccc3s2)CC1(C)C` were, in that order, 4% and -0.62.
As for `Cc1c(C(=O)Nc2ccccc2)[n+]([O-])cn1-c1ccc2c(c1)OCC(=O)N2`, the “% Inhibition” value is listed as -3% and the Z score was determined as 0.46.
The corresponding values for `Cc1ccc2sc(-c3ccc(NCc4cccnc4)cc3)nc2c1` are -12% and 1.72.
For `O=C(N[C@H]1CC[C@H](O)CC1)c1ccccc1NS(=O)(=O)N1CCOCC1`, the “% Inhibition” value was 15% and the Z score is -1.91.
